57 sequences from the supplement of paper PMC11417369 can be followed below.

The other results are listed elsewhere or left out.

The subject of the experiment is PF3D7_0420300 AP2 domain 1 (GST-tagged). The experiment can be described thus: gcPBM binding intensity (ln(normalized median fluorescence intensity)); higher = stronger DNA binding. In a few lines:
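Using an Agilent 4 × 180k array, primer-extended double-stranded 36-bp intergenic genomic probes and negative controls were exposed for 1 h to GST-fused P. falciparum DNA-binding domains expressed in E. coli. Binding was carried out in 1× PBS with 1% milk, 0.2 mg/ml BSA, 0.5% salmon testes DNA and 0.03% Triton X-100, and protein was detected with Alexa488 anti-GST antibody and a 488 nm scan. Binding intensity is the highest Masliner-normalised natural-log median intensity across replicate spots of either probe orientation.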
For the sequence CCCATTTAATATTGAGTGCATTTAAATAAATGTATT, the “gcPBM binding intensity (ln)” value is 9.14. With “TTTTACAAAGTATGATGTACAAGTATATATAAATAT [XGTACX_site2072]”, the “gcPBM binding intensity (ln)” value is 9.04.

For the sequence “TACATGAATAAACTTACACACACCCATGCATACATA [CACACA_site97]”, the “gcPBM binding intensity (ln)” value worked out at 9.87.

On to “TGAAAAGGAAAATTTTGTACATATACATCAAGGATA [XGTACX_site656]”, for which the “gcPBM binding intensity (ln)” value was determined as 9.17. As for “AAAAAAAAGAATTTACGTACTTATTATTTATATTTT [XGTACX_site5701]”, the figure is 9.24. Next, “ACTTTTTATTTTTTACTATATATATATATATATATG [TGCATGCA_negctrl_site463]”: 9.65; “TTTTGTTTTAAAAGTACACACTTTTAATTAGATTTC [CACACA_site4788]”: 9.15; “AAAATACACAACATATATATATATATATATATATAT [XGTACX_negctrl_site21]”: 9.21. As to “TGATCAATGGATTTAACACACAAAAAAAAAAAAAAA [CACACA_site3845]”, the “gcPBM binding intensity (ln)” value came out at 9.11. In the case of “ATTTATTTTTTACATTGTACATATTTATTCCTTTTA [XGTACX_site8028]”, the “gcPBM binding intensity (ln)” value stood at 9.56.

“TATAACATTTTTTTCAAAATAGCTTTAGAAATAAAG [CACACA_negctrl_site718]”: the “gcPBM binding intensity (ln)” value came to 8.78. Consider “TTTTTTTTTTTTTTTGCATGCAGGTTTTTACCCCTT [TGCATGCA_site381]”, for which the “gcPBM binding intensity (ln)” value was found to be 8.92. Regarding “TTATTTTCAAAATGTTGTACACACAAAAAAAAAAAA [XGTACX_site3151]”, the “gcPBM binding intensity (ln)” value was determined as 9.25. Next, “TTTTTTTTCTTCAAGCGTACTTATTTGTAGAAAAAA [XGTACX_site1728]”: 8.73; “TATGTATATATATAAAGTACGCAAATTTATAATAAG [XGTACX_site8744]”: 9.35; “ATATGTGGAAATAGAGCACACATATATATAATATAT [CACACA_site8194]”: 9.58. As to “TTCTTTTCTTTTTTCTTTTTTTTTTTCTTTTCTTTT [GTGCAC_negctrl_site630]”, the “gcPBM binding intensity (ln)” value stood at 9.46. As to “AAAAAAAAAAAAAAAACATGCAAAATAATATATATA [TGCATGCA_site68]”, the “gcPBM binding intensity (ln)” value is 9.38. As for “AGAAAAGGACATATATGTACTTATCAATATAGAAAC [XGTACX_site1042]”, the “gcPBM binding intensity (ln)” value was determined as 9.38.

As for “TCACATATGTTCCATTGTACTTGTAGTAATTTTTTC [XGTACX_site6473]”, the “gcPBM binding intensity (ln)” value was found to be 9.33. Next, “GTAATATGTATCCATACACACATACATTTTATTTGC [CACACA_site4640]”: 9.48; “ATAAAATGAAATATATGTACGCATCACTTGTTGAAC [XGTACX_site4530]”: 9.31; “TAATTAAAAAATAAAAAAAAAAAAAATTAAAACAAA [CACACA_negctrl_site500]”: 9.2.

With “TTCTTTTTAATTTATTTTTTCTTATAACAAGAAAAC [CACACA_negctrl_site201]”, the “gcPBM binding intensity (ln)” value was 8.93. With “GTACATACATAAAACACACACATATATATATATATA [CACACA_site1826]”, the “gcPBM binding intensity (ln)” value amounted to 9.58.

“AAAACAATAATATACTGTACATATATATAATAACAT [XGTACX_site6188]”: the “gcPBM binding intensity (ln)” value was determined as 9.65. For “AAATTCAGGTTATATTTTAATTTTTTTTTGTTTTTT [CACACA_negctrl_site924]”, the “gcPBM binding intensity (ln)” value came to 9.31.

As for “AATTTTTCATCAAGTTGTACAATTATTTGTTTGTTT [XGTACX_site3113]”, the “gcPBM binding intensity (ln)” value is 9.49. Turning to “CATACACATACACATACACACGCATAGAAACATACG [CACACA_site8666]”, the “gcPBM binding intensity (ln)” value was 9.82.

As to “CAATATTTTTTATAGGGTACAAAAGATAAAAAAAAA [XGTACX_site6298]”, the “gcPBM binding intensity (ln)” value was found to be 9.19. Consider “AAAAGAAAAAGAAAAACACACATAAATATAAATATA [CACACA_site1879]”, for which the “gcPBM binding intensity (ln)” value is 9.59. As for “TATATTTTACTCTTCACACATATACTCAATTTATAT [CACACA_site5357]”, the figure is 9.5; as for “CATATTTGGAAACACACACACATATTTATATATATA [CACACA_site3569]”, 9.95; as for “AAAATTTTCTTTTTATGTACACATAATTTTACCGGA [XGTACX_site5276]”, 9.18. Next, “AAAAATAAAAAAAATACATGCAATGAAACATTTATT [TGCATGCA_site263]”: 9.28; “TTACGCGCTTATTACACACACATACAAATAAGGATT [CACACA_site3486]”: 9.76; “AACAAAATAAAAAAAACATGCAAGAATTCTTATATG [TGCATGCA_site714]”: 9.66. With “ATTTGTATTGTATATGCACACATAGAACACTTTTTT [CACACA_site9373]”, the “gcPBM binding intensity (ln)” value was determined as 9.54.

Regarding “TTGTGTTTGAAAAAATGTACATGTGTCTTACAACAA [XGTACX_site8371]”, the “gcPBM binding intensity (ln)” value was found to be 9.07. “TTATACAGATATTTAACACACATTTTATAAAGTGCC [CACACA_site4851]”: the “gcPBM binding intensity (ln)” value came out at 9.35. For “GCCTCATCGTAGCAGTGTACGTTTTTTTTTTTTTTT [XGTACX_site8648]”, the “gcPBM binding intensity (ln)” value was found to be 9.6. “ACAATTTATATTATATGTACTTAAAAAGTTCGTAAA [XGTACX_site6421]”: the “gcPBM binding intensity (ln)” value turned out to be 8.94. As for “TTTTATACATAAATATGTACGTATATATAATGAATT [XGTACX_site1337]”, the figure is 9.07; as for TTCTAAAATTATATAGTGCAATTATATTAATTTTTC, 9.

Turning to “ATAACAACCCAATGTTGTACATTTAAATATAACGTA [XGTACX_site7114]”, the “gcPBM binding intensity (ln)” value turned out to be 9.27.

Take “TATATATATTTATGTACACACACACCGATAAATAAA [CACACA_site4404]”: the “gcPBM binding intensity (ln)” value turned out to be 9.93. With “TATAACATATGACACACACACATACATACACAAAAA [CACACA_site6935]”, the “gcPBM binding intensity (ln)” value was 10.2.

Turning to “CCTTTTTTTTTTTTATGTACTAAAATAAAATTAGAA [XGTACX_site5956]”, the “gcPBM binding intensity (ln)” value came out at 8.84. As for “ACCCTATCTGTAACTACACACCGCATATTGTTTACT [CACACA_site5661]”, the figure is 10; as for “ATAAATGACAGACACACACACAAAAAAAAAAAACAA [CACACA_site2626]”, 10.2; as for “AAATATTTATATGTTACACACTGTTTATAACTTTCT [CACACA_site6752]”, 9.57. Next, “CTTCTGTAATTATCACGTACATATAATAATTAAAAT [XGTACX_site8973]”: 9.11; “TTTTTATCTTTGCTGTGTACATAAATAAAAATAACT [XGTACX_site7625]”: 9.22. Turning to “TTTTTTTTGATAAGTTGTACAATGATATATATCCCT [XGTACX_site3560]”, the “gcPBM binding intensity (ln)” value was 9.12. In the case of “ATAGTTTAATTTATATGTACATATAATATTGATTTG [XGTACX_site7520]”, the “gcPBM binding intensity (ln)” value stood at 9.36. Consider “TATATTTTATATTGGTGTACAATTTTTTTTTTTTTT [XGTACX_site4291]”, for which the “gcPBM binding intensity (ln)” value turned out to be 9.2.

For the sequence “AAAAGGTATGTTATACATAGATATGCACATATATGT [TGCATGCA_negctrl_site96]”, the “gcPBM binding intensity (ln)” value was determined as 9.29.
